Source: the supplement of paper PMC11417369
The other results are listed elsewhere or left out.

Tested on: PfSIP2 AP2 domain 1 (GST-tagged)
Test: gcPBM binding intensity (ln(normalized median fluorescence intensity)); higher = stronger DNA binding
Outline: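 The highest Masliner-normalised natural-log median intensity across replicate spots of either probe orientation is reported as binding intensity. GST-tagged P. falciparum DNA-binding domains expressed in E. coli were applied for 1 h to an Agilent 4 × 180k array of primer-extended double-stranded 36-bp intergenic genomic probes plus negative controls, and bound protein was detected with Alexa488 anti-GST antibody and scanned at 488 nm.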

| Sequence | gcPBM binding intensity (ln) |
| --- | --- |
| ATTTAATTTGTTCTTACACACACATATATATATATT [CACACA_site8310] | 7.2 |
| ATAATATAAATACAAACACACAATTGCGTCCACATT [CACACA_site5039] | 7.13 |
| TCATACGAAATATAAACACACATACAATAAATAAAT [CACACA_site5156] | 6.91 |
| ATTATAACCATATACACACCCATATAAATAAATATA [CACACA_site6926] | 7.19 |
| CGTTTTAATAAGATCACACATATAATATATATATAT [CACACA_site5159] | 8.73 |
| GGACAAGAATAGTGCACATGCAATGTTATTTTTTAT [TGCATGCA_site450] | 10.9 |
| ATATTAAATGTTATCACACACATAATTACTTCCATA [CACACA_site7160] | 6.89 |
| TATTAAATGGCCATTACATGCAATTATTTCTAATAA [TGCATGCA_site275] | 6.68 |
| TCAAATATATAGAATACACACATGGATATAAGAAAT [CACACA_site4065] | 7.09 |
| TTTTTTAACTGTATGATGTTATATTAAAAATAAAAA [GTGCAC_negctrl_site463] | 6.8 |
| AACGCACGAGGACACACACACATATTTATATTTATA [CACACA_site6608] | 7.24 |
| ATTTATATATAATATACACACATATAATACCCATAT [CACACA_site4548] | 7.11 |
| ATATATTTTATATAATGTACATAAACCGCACACATA [XGTACX_site6061] | 7.77 |
| TTTCAAATTTAATACACACACAAGTATATATCTATC [CACACA_site7782] | 6.98 |
| TATATTATGACCACCACACACCTATACACATAACAT [CACACA_site7199] | 7.35 |
| TTTAATATTAGCATATGTACACAAATCACACGGAAA [XGTACX_site2473] | 7.5 |
| TAATCCTTTCAATATTGTACACATTTGTGTTAAGAA [XGTACX_site1275] | 7.34 |
| ATTTAAAAAAAAAAAAAAAAAAAAAAAAAAAGAAAA [CACACA_negctrl_site722] | 6.97 |
| TTGTTTATTTGTAAAGCTAACAAGAAATGTGAATAT [CACACA_negctrl_site931] | 7.07 |
| AACGAACACTATTACACACATACATACATATGTATG [CACACA_site1859] | 7.13 |
| TATACATAAAAATGATGTACATATAATATATATATA [XGTACX_site3863] | 8.71 |
| TTATTATTATAAAATTGTACTTGGTATATTAACATA [XGTACX_site5829] | 6.98 |

| Sequence | gcPBM binding intensity (ln) |
| --- | --- |
| ATATAAATATATTTTACACACAATGGAGAAAAAAAT [CACACA_site6450] | 7.14 |
| ATCTTGAAGATTATTTGTACACAAAAGTTAAAATAT [XGTACX_site242] | 6.94 |
| GGATTAATATATTTACCACACACCCATTTCGATTTT [CACACA_site9200] | 6.92 |
| TATATAATTATTTATTGTACACTCAAATCGATAAGG [XGTACX_site3216] | 7.21 |
| TATTTATAAATATAAACACACAACATTCTATGCATA [CACACA_site3243] | 6.96 |
| AATGTATTATGTCTTCGTACACATAAATAAATAAAT [XGTACX_site4004] | 7.03 |
| AATTATAAATTGGACACACACATAAAAAATATGTAC [CACACA_site221] | 7.19 |
| TAAAGGAAATAAAAAACATGCAAATATGAAATATAT [TGCATGCA_site745] | 6.84 |
| ATACATAATAACTCCTGTACTTAAAAATGTATATAT [XGTACX_site1071] | 7.08 |
| TAAAAAAAAACATGTGCACACGTTTTATCTACATAA [CACACA_site2336] | 8.79 |
| TTACATATTATACGAAGTACGTACAAATACTTATAT [XGTACX_site8598] | 7.16 |
| TTTTTTTTTTTTTTTTTTAAACACCTCAAAAAAAAA [CACACA_negctrl_site807] | 7.03 |
| TTGCATTGTCCATGCGCACACACTACTAGAATAATA [CACACA_site3678] | 7.84 |
| ACCTTATTTAGTTATAGTACACAAAGTATTAAACAT [XGTACX_site8418] | 7.68 |
| GCGAATAATATGGACATACACACATATACATACATA [CACACA_site2115] | 7.21 |
| TATATATATTTTTGTGTGCACTATAATATGAAAATA | 10.8 |
| TTTTTTTTTTTCTTCACACACAGTACTACTATTTAT [CACACA_site2409] | 7.04 |
| TCATTTATTGAGGAATGTACACGTAAAATTTAATAA [XGTACX_site4086] | 7.41 |
| ATTTTTTTTTTTTTTTTCTTTTTTCTTCTTTTTTTT [CACACA_negctrl_site1223] | 6.63 |
| ATATATATTATAAAATGTACAAATGTTATATAAAAT [XGTACX_site4750] | 7.3 |
| TTTTTTTTTTTTTTATGTACATATATATATTTTATT [XGTACX_site6915] | 7.1 |
| TGTATATATCAATGTACACACATGCGTATGTTCGTT [CACACA_site7654] | 6.91 |

| Sequence | gcPBM binding intensity (ln) |
| --- | --- |
| TATAAAAAAAATTGCACACATATTATACAGGACGAC [CACACA_site701] | 7.96 |
| AAAATATATATAACTTGTACATATACATACGTATAT [XGTACX_site4570] | 6.86 |
| AATATATGGTTCCTTGATATTAAATTCAATTTAATG [CACACA_negctrl_site71] | 6.9 |
| TGTGTATATGTGCAAAGTACAAAAAAGAAATTATTT [XGTACX_site7569] | 7.66 |
| TAAATCTATATCATCACACACACATACATAAATATA [CACACA_site6228] | 7.04 |
| TAGTATTGTAAAAAAAAAAAAGAAAAAAAAAAAAAA [CACACA_negctrl_site977] | 6.76 |
| TGGATGTTAATATAGTGTACATTTATAAGTCAGTAT [XGTACX_site2949] | 7.32 |
| GTGGAAAAAAATAATTGTACACAATAATAAATATAT [XGTACX_site2414] | 6.97 |
| GAAAAAAAATCCAAGATGCACTATTATTACAAAAAT [GTGCAC_site9516] | 9.4 |
| GTCAAAAGTTTTTAAGGTACACTTATTTTATTATAA [XGTACX_site7004] | 7.19 |
| ATGTAATATATGCGGAAATATATTCACAAGACGTCA [CACACA_negctrl_site373] | 6.93 |
| CACTAAACATATACACGTACATGCAACGGATTTTTT [XGTACX_site461] | 7.12 |
| ACCTTTATTGTATGAACACACATAAGCTGATACATC [CACACA_site4028] | 7.4 |
| TATAGATACCTATACACACACACACGGACATATATA [CACACA_site7585] | 7.08 |
| ATATAAAACAACGGGTGTACAAAAAAATAAATAATA [XGTACX_site4094] | 7.14 |
| AAAGAAATGAAATATACACACATACCTATATACATA [CACACA_site7817] | 6.85 |
| TTTTTCTTCTGCATTATGCACACTATAATTCGTTAA [CACACA_site2837] | 7.98 |
| TTTTTAATATATAAAGATAATAATAAATAAAATTCA [CACACA_negctrl_site657] | 6.69 |
| TTAAAATCTTGAAAAGTGCATTATCATTTTGTAACG [GTGCAC_site9447] | 7.83 |
| TATAATGATGATGATAGTACGTATGAGTTCAAAAAA [XGTACX_site3656] | 7.02 |
| TATATATTTATATATGCATGTACATTTTTATTTATT [TGCATGCA_site1048] | 7 |
| CTGAATGTATATATTTGTACATATATATATATATAT [XGTACX_site5557] | 9.99 |

| Sequence | gcPBM binding intensity (ln) |
| --- | --- |
| GGGTATAATAAAAGCACACACAAAGATATAAATATA [CACACA_site3308] | 7.13 |
| AAAAAAAAAAAACACGCATGTACATAAAAATAATCA [TGCATGCA_site142] | 6.97 |
| TTTTTTTTTTTTAATTAACACACATAAATATATATA [CACACA_site9077] | 7.22 |
| TTTTTGATGAAATATTATTTTCCTGACTTGGATTAA [CACACA_negctrl_site148] | 6.65 |
| TGGAGGATAGTTCACAGTACCCAGAAACTCTACGGA [XGTACX_site2560] | 6.58 |
| AACCATAAATAATTATGTACTAAAAAAAATATATAT [XGTACX_site3415] | 7.23 |
| ATAATATATTTATGTTGTACAAGGAAAATTTTGAAA [XGTACX_site3472] | 7.65 |
| GAAATGGAAAAATATACATGCGCATATAAATTAATA [TGCATGCA_site834] | 6.76 |
| ATCATATGTATGCATACACACAAAAAATTATATATA [CACACA_site398] | 7.05 |
| TATAATGATATAACAACACACATGTATGTATTATTA [CACACA_site230] | 6.87 |
| TTATTTATGATATATACACACTAACATTATTTATCC [CACACA_site6720] | 6.95 |
| TCTTATATATGCTTAAATATATTATATTTATTTGAA [CACACA_negctrl_site1757] | 6.84 |
| ATATCAAATTCTGAAACACACAAAATTACACCTCTA [CACACA_site169] | 7.06 |
| TTTTCGATATGCTTTTTTTTTCTACTGTCTTTTTAA [TGCATGCA_negctrl_site54] | 6.63 |
| CAAAAATATTATTATAGTACATAAATAATATATTTT [XGTACX_site6902] | 6.87 |
| TAAAAATAGGAGTGTGTGCACATAAATTATATACTA [GTGCAC_site9405] | 8.55 |
| TTACTTAATAGACACACACACAAAAAAAAAAAAAAA [CACACA_site6572] | 7.15 |
| CACATACATAAATACACACACAAAATAATAAAATAA [CACACA_site5304] | 7.12 |
| TTTTCATTTTTCTTTACACACATATATATATATATA [CACACA_site2236] | 9.3 |
| TATATATATATTTTTTGTACATATTATATAATATAC [XGTACX_site5187] | 8.38 |
| AAAAAAAAAAAAAAAAAAAAACACCCAAAAAAATAT [XGTACX_negctrl_site210] | 8.35 |
| GAAAGACAAATTGTGACACACACAAAAAAAAAAAAA [CACACA_site9241] | 7.07 |
